# Laboratory results from the supplement of paper PMC11417369.
# Some of the results follow.
# System: PfSIP2 AP2 domain 1 (GST-tagged)
# Assay: gcPBM binding intensity (ln(normalized median fluorescence intensity)); higher = stronger DNA binding
# Summary of the method: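 The binding buffer was 1× PBS containing 1% milk, 0.2 mg/ml BSA, 0.5% salmon testes DNA and 0.03% Triton X-100. In it, GST-tagged P. falciparum DNA-binding domains expressed in E. coli were applied for 1 h to an Agilent 4 × 180k array of primer-extended double-stranded 36-bp intergenic genomic probes plus negative controls. Binding intensity, read with Alexa488 anti-GST antibody and a 488 nm scan, is the highest Masliner-normalised natural-log median intensity across replicate spots of either probe orientation.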
row,Sequence,gcPBM binding intensity (ln)
1,AAAAAAAAAAAACACACACACACAAATACATACACA [CACACA_site706],7.19
2,ATATAGTTTCACATGTGTACATAAAAATACACTTGT [XGTACX_site3339],7.06
3,ACAAAAATGAGATGGTGTACGCACAAATAAATAATA [XGTACX_site5221],7.51
4,TTTAATTTATATAATGATATTAAGTTGGTTATTAGG [CACACA_negctrl_site329],6.76
5,GAAAATTCATAAAAATGTACTTATTATATTATTTAT [XGTACX_site2169],6.81
6,AAAGGTTTGCGTTGTGTGCACAAAATAAATATATAA,8.58
7,TTATGAATATTGATGTATAAAAAAATATATATGTTA [XGTACX_negctrl_site390],6.98
8,GATATATAACTTTTAACACACAAAAAAAAAAAAAAT [CACACA_site7653],7.05
9,TAAAATTATGTAATAACACACATATACAATACATAT [CACACA_site1236],6.93
10,TTTTTTATTTAAAGTAGTACTTTTTAGAAAACAAAA [XGTACX_site6759],6.88
11,ATTCTAAATATGTATATACACACTTTTAATATTCAT [CACACA_site4118],7.22
12,TTTATGAAACAGTGCACACATAAAAATAAATACATA [CACACA_site5631],11.2
13,TTATTTTAAATTAACACATGCATAATATATGTATAT [TGCATGCA_site597],6.91
14,AAAAAAATTTTAAAATGTACAAATTTTAATATATAT [XGTACX_site7628],6.91
15,TTTTCAAAAATATACACACACATAAATATATGTATA [CACACA_site777],7
16,AGGTTGAATATATATTTGTGATTATATTATTTTATT [CACACA_negctrl_site778],6.8
17,TATATATATATATAATGTACAAACTCCTTTATATAT [XGTACX_site4545],9.2
18,CCATGTCAAACATTTGCACACAAAAAAATAAAAATT [CACACA_site4546],7.37
19,TCATTCAAAAAAAATCAACACACAGTTACATAGCTC [CACACA_site8700],6.89
20,GTTTTTTTTATATATTGTACAAATAATATATTATAT [XGTACX_site29],7.67
21,TTTTAAAAAAAAAAAATAAATAAATAAGATATTATC [CACACA_negctrl_site1791],6.47
22,TTTTAAAACTACATTGGTACACAATAAAAAAAAAAA [XGTACX_site2793],7.13

row,Sequence,gcPBM binding intensity (ln)
1,AAAAAAAAAAAAAAAGCACACATATAAATATGAATA [CACACA_site8391],7.5
2,TCATATATATTATACACACACATATATAAATATATA [CACACA_site967],7.03
3,AACACCAAACTAAATGTACACACATACATAAATATA [CACACA_site8298],7.14
4,AATATAAACACAAACACACACATATATATATATATA [CACACA_site4307],9.52
5,TTATTTAAACAAATCACACACAAATATAAATACATA [CACACA_site5158],7.09
6,TTATGTTATATATACACACACAAAAGAAAAAAAAAA [CACACA_site2987],6.9
7,AGGTTAAAAATAAATACACACATTTGATGTCTGTAT [CACACA_site6596],6.73
8,ATATAACATATTAATAATATATTTATAATATGTTTA [GTGCAC_negctrl_site168],6.96
9,TTTTGAGAATATATGGGTACAAATAAATAAAAATAT [XGTACX_site1933],7.26
10,AAATTTAAATAATGTGCGCATCTTAATATATATAAG [GTGCAC_site9890],9.04
11,AAATAATATTGAAAAGTGCATATTTTTGTTGATATA,8.42
12,CATATAAATAGACACACACACACATATAAATAAATA [CACACA_site7156],7.23
13,TAATAAAAAAAGTGCACACACATAATATATATATAT [CACACA_site3340],10.4
14,TATAAATCAATATGTACACACATATACATGTTGAAT [CACACA_site7460],7.01
15,CATATAATATATCAATGTACATATATATTTTATAAA [XGTACX_site5901],6.99
16,TTAGCAACTATTACTACACACATTTTTATATAATTT [CACACA_site1372],7.17
17,ATTGTCAAAACACGCACACACATATACATAATAACA [CACACA_site1742],7.36
18,ATTATATACATATATATTGTATATACTATACATATG [XGTACX_negctrl_site545],6.84
19,ATATATACCTATAACACACACATATTTATATTTATA [CACACA_site7257],7.16
20,TCTTATTTAAAAATAGCACACATTATATATATATAT [CACACA_site8916],9.18
21,ATATATATATAAAGGAGTACATACATTAAAAAAAAA [XGTACX_site1095],8.7
22,AAAAAACATACATACACACACATAAATATATATATT [CACACA_site2699],7.11
